Assay results as given in publication PMC10668032.
This is one part of the list. At the low end of the ranking the order means little.

These sequences were tested against SIX1 homeodomain (reference allele) (UniProt Q15475) (assay: universal protein binding microarray). Conditions: Universal all-10-mer PBM (8x60K, AMADID 030236), 300 nM GST-tagged protein, Alexa Fluor 488 anti-GST; buffer, salt, pH and temperature not stated; high values mean tight binding; most listed sequences are background and not binding sites; double strand, one strand shown.

Row | Sequence | binding signal [E-score]
1 | ATGCTCGG | -0.141
2 | CGGGCATC | 0.0739
3 | AACAAACC | -0.0424
4 | GATCAGGA | 0.339
5 | GATCCGCA | 0.411
6 | CTATGGAG | -0.0755
7 | ATCGCAAC | 0.198
8 | TGGCGACA | -0.0416
9 | ACCAACCC | -0.0303
10 | CGAGCTCC | -0.0198
11 | CTTAAAAA | -0.239
12 | AGGAGCTC | -0.13
13 | CTGACCTA | -0.114
14 | CAACCCGC | -0.117
15 | CCACCGAC | -0.192
16 | TGAAAACA | -0.0728
17 | CCTTGGAA | -0.0364
18 | CGATCACC | 0.34
19 | AGTATACT | 0.219
20 | CCACCTCC | 0.102
21 | GAAAAGTC | -0.344
22 | CCCAACAC | 0.0936
23 | GGTCGACA | -0.0212
24 | AGGCCGTA | 0.197
25 | ATCATACC | 0.351

Row | Sequence | binding signal [E-score]
26 | AAGGAGAG | -0.0784
27 | CAGGGCAC | -0.12
28 | GTTCTGTA | 0.0731
29 | ACCGAGAC | 0.0612
30 | GCGGTATA | 0.375
31 | GAACAAAA | -0.0329
32 | AAAGTAAT | -0.0423
33 | GTGCGTTA | -0.155
34 | ACATCGTA | 0.0956
35 | AAAACGAC | -0.249
36 | GAAAATTA | -0.22
37 | TAGCCTGA | -0.113
38 | CGGGGACG | -0.115
39 | GAGATAGA | 0.183
40 | ATTCGCCC | -0.153
41 | CGGACACA | -0.0971
42 | CCTAAGAC | 0.0278
43 | AATTGGAC | -0.128
44 | CACCTCCC | 0.015
45 | CAGCCGCC | -0.187
46 | AGCTTGGC | -0.166
47 | AAAATCGA | -0.0662
48 | CGATAGCA | 0.206
49 | ATAATTAT | 0.126
50 | ATCAGTGA | 0.214

Row | Sequence | binding signal [E-score]
51 | CGGGTGAA | -0.044
52 | AACAGATG | -0.311
53 | AGACTCAG | -0.115
54 | AAACAGTG | -0.154
55 | GGGAATAA | -0.0243
56 | ATTGTACG | -0.0901
57 | AATTATTA | -0.124
58 | GAGAGCTA | -0.0927
59 | CTTGCTCA | -0.0824
60 | GCATTCAC | -0.0828
61 | CAGTAGGG | -0.0144
62 | ATAATTCC | -0.144
63 | CCAAGCGG | 0.1
64 | GAGCGAAC | -0.272
65 | TATGGCGA | -0.0179
66 | CAAGTTCC | -0.214
67 | AAGCATGA | 0.141
68 | AGATAATG | 0.13
69 | GTACGTGA | -0.056
70 | CAATTCCA | -0.165
71 | GAACCCGC | -0.0843
72 | CCCAAAGA | -0.191
73 | TAAGAAAA | -0.147
74 | ACGAAGAA | 0.0501
75 | AGTAGCGG | -0.0137

Row | Sequence | binding signal [E-score]
76 | ATATGGGC | 0.326
77 | CAGCCACC | 0.0229
78 | GGAAGCTA | -0.0526
79 | GACACCGC | 0.398
80 | ACACCGTA | 0.344
81 | ACGCTAGT | -0.155
82 | GATCGAGA | 0.295
83 | AAGATTGC | -0.163
84 | CGACGCGC | 0.0588
85 | CGAGCTAA | -0.0678
86 | GGAGGTAA | -0.272
87 | GCCCTGGA | 0.0936
88 | GCCAACCA | -0.196
89 | GGACAGCA | -0.204
90 | ATCACAAT | 0.321
91 | ACCTAGAT | 0.312
92 | ATCAGCGC | 0.136
93 | CATTGTTC | 0.0622
94 | ACGTTTTG | -0.303
95 | ATCTACAT | 0.06
96 | GCTCACAA | -0.00967
97 | TAGCAAGA | 0.122
98 | ACGACGCT | -0.27
99 | CCGCCCCA | 0.258
100 | AAGGTCCT | -0.257

Row | Sequence | binding signal [E-score]
101 | GTCTATTA | -0.138
102 | AGAATTGA | -0.1
103 | CTGCATTA | -0.11
104 | ATGCGCAT | 0.148
105 | AGGAACTA | -0.134
106 | ATATTTCG | 0.101
107 | CTAGCAAA | 0.0609
108 | GGTGCATA | 0.0702
109 | AACACGGC | -0.0034
110 | ATCGTAAA | 0.159
111 | ACTATTAG | 0.0327
112 | AAAGATAC | 0.365
113 | GTACGCAC | -0.311
114 | CGTCATTA | -0.0699
115 | CGGGCCTA | -0.127
116 | CGTTCAAA | -0.1
117 | AGTATACA | 0.294
118 | AGACTGCC | -0.199
119 | AGATAGCT | 0.178
120 | AAACTAAA | -0.179
121 | ACTAGCAT | -0.111
122 | CGCCTTGA | -0.0444
123 | ATGAAAAC | -0.119
124 | GCAAGAAC | -0.0609
125 | ATAGTCTC | 0.151

Row | Sequence | binding signal [E-score]
126 | CTATAAAC | 0.085
127 | GTCAGGGA | -0.122
128 | AGTAGGAC | -0.0515
129 | TCAGGTAA | -0.182
130 | AGTACCTC | -0.0331
131 | ACTATAGA | 0.0353
132 | CTTCGAAC | -0.246
133 | CCACCGGG | 0.0409
134 | AGCGAGAG | -0.041
135 | AATCAGCG | -0.0852
136 | ACTTTTCC | -0.232
137 | GAGGTATC | 0.477
138 | AGCTTGAA | -0.215
139 | ATGCCATA | 0.0949
140 | TGGTCACA | -0.0876
141 | GCACACCA | 0.125
142 | GCAAACAA | -0.32
143 | AGGCGTCG | -0.152
144 | AAGGAAAT | -0.293
145 | ACACAGAC | -0.124
146 | AAGTTATA | 0.029
147 | TCAGGACA | 0.0236
148 | AAAGTATG | -0.109
149 | CGCATTGA | 0.154
150 | GGCTAGGA | -0.218

Row | Sequence | binding signal [E-score]
151 | AGCTTGCA | -0.187
152 | TAGGCTGA | -0.0613
153 | CATACCGC | 0.0555
154 | CAGGGAAA | -0.203
155 | ATCAGGGA | 0.209
156 | ATTATGGA | 0.191
157 | TCAAACAA | -0.0903
158 | AGCCGGCT | 0.173
159 | GACTGCAA | -0.265
160 | ACTTAGTG | -0.161
161 | GGACGAAC | 0.00931
162 | CTGCCAAG | -0.158
163 | CTAAAATA | 0.107
164 | ATCTATAC | 0.35
165 | ATACGGAG | 0.193
166 | ACGATGAG | 0.0617
167 | CACTACTG | -0.018
168 | ACCATAAA | -0.0525
169 | GACCACCC | -0.0483
170 | GCCTTGCC | -0.165
171 | CTCGCGCC | -0.184
172 | ATTAAATG | 0.061
